Experiments:
[1] = tested on: A-431 (wild-type) xenograft; format: in vivo, mouse; details: once-daily oral; Fig. 5i
[2] = tested on: HCC827 (ex19del) xenograft; format: in vivo, mouse; details: once-daily oral; Fig. 5e
[3] = tested on: NCI-H1975 (L858R/T790M) xenograft; details: once-daily oral; Fig. 5h
[4] = tested on: PC-9 (ex19del) xenograft; format: in vivo, mouse; details: once-daily oral; Fig. 5f

SMILES | antitumor effect (tumor volume) [1] | antitumor effect (tumor volume) [2] | antitumor effect (tumor volume) [3] | antitumor effect (tumor volume) [4]
C#Cc1cccc(Nc2ncnc3cc(OCCOC)c(OCCOC)cc23)c1 [Erlotinib, erlotinib] | statistically significant antitumor effect |  |  | 
C=CC(=O)Nc1cc(Nc2nccc(-c3cn(C)c4ccccc34)n2)c(OC)cc1N(C)CCN(C)C [Osimertinib, osimertinib] | statistically significant antitumor effect |  |  | 
C#Cc1c(-c2cnc3ccccc3c2)c2c(N)ncnc2n1C12CCC(NC(=O)c3cnc(C)cn3)(CC1)C2 [TAS3351] |  | statistically significant antitumor effect | statistically significant antitumor effect | statistically significant antitumor effect

— PMC13181001 (Communications Medicine, 2026)
